From the antibiotic and cytotoxicity screens of Wong et al. (2023)
Some of the results follow.

Experiments:
HSkMC = human skeletal muscle cells; assay: cytotoxicity call (relative viability < 0.9); conditions: 10 µM
HepG2 = assay: cytotoxicity call (relative viability < 0.9); conditions: 10 µM
S. aureus RN4220 = assay: growth inhibition call (relative growth <= 0.2); conditions: 50 µM

| SMILES | cytotoxicity call (HSkMC) | cytotoxicity call (HepG2) | growth inhibition call (S. aureus RN4220) |
| --- | --- | --- | --- |
| COc1ccc(CN(C)C[C@H]2Oc3ccc(NS(C)(=O)=O)cc3CC(=O)N([C@H](C)CO)C[C@@H]2C)cc1 | inactive | inactive | inactive |
| C[C@@H]1CN([C@@H](C)CO)C(=O)c2cccc(NS(C)(=O)=O)c2O[C@@H]1CN(C)S(=O)(=O)c1ccc(Cl)cc1 | inactive | inactive | inactive |
| C[C@@H]1CC=CC[C@@H](c2cccc(Cl)c2)NC(=O)[C@H](Cc2ccccc2)N(C)C(=O)c2ccccc2O1 | inactive | inactive | inactive |
| O=C(C[C@H]1CC[C@H]2[C@@H](COC[C@@H](O)CN2S(=O)(=O)c2ccccc2)O1)NCCN1CCCC1 | inactive | inactive | inactive |
| CCS(=O)(=O)Nc1ccc2c(c1)C(=O)N(C)[C@@H]1CC[C@@H](CC(=O)N3CCN(C)CC3)O[C@H]1CO2 | inactive | inactive | inactive |
| CO[C@H]1CN(C)C(=O)c2ccc(NC(=O)C3CC3)cc2OC[C@H](C)N(C(=O)CN2CCOCC2)C[C@@H]1C | inactive | inactive | inactive |
| Cc1noc(C)c1S(=O)(=O)N(C)C[C@H]1Oc2ccc(NC(=O)Cn3cnnn3)cc2C(=O)N([C@H](C)CO)C[C@H]1C | active | inactive | inactive |
| O=C(Cc1ccccn1)NCC[C@@H]1CC[C@@H](NC(=O)CN2CCOCC2)[C@H](CO)O1 | inactive | inactive | inactive |
| C[C@@H]1CN([C@H](C)CO)C(=O)c2cc(NS(C)(=O)=O)ccc2O[C@@H](C)CCCCO[C@@H]1CN(C)S(=O)(=O)c1cccs1 | inactive | inactive | inactive |
| O=C(C[C@H]1CC[C@H]2[C@@H](COC[C@H](O)CN2S(=O)(=O)c2ccc(Cl)cc2)O1)NCCN1CCCCC1 | inactive | inactive | inactive |
